# Hit rate of the full screen: of about 390,000 compounds, about 930 (0.24%) were called active. The inconclusive results got no clear call from the source; some entries with a clear call stand among them for comparison. The call rests on the fitted dose curve; in most records, active means well fitted activation curve with a large enough effect; inconclusive means small, poorly fitted or top-dose-only effect; inactive means no such curve, though single readings can be large or run the other way. Potencies beside an inconclusive call are fits to weak or partial responses and may not hold up.
# Test: qHTS for Suppressors of FUS Proteinopathy: Primary screen using FUS-linked yeast assay; further: nearly all actives have a fitted effect of over 55% in size;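 on growth rescue (activation): plate controls were DMSO vehicle for no effect and reference control for full effect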
# Details: S. cerevisiae FUS-expressing, OD600, 24 h; Potency: growth rescue; growth rescue (activation): at 76.6 µM (top of the series)
# Outline: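 Steps: raffinose overnight preculture; dilution to OD 0.005 in 2% galactose minimal medium; compound addition (concentration series); 24hr at 30C, 99% humidity; absorbance read at 600 nm.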
# Potency means the concentration at half of the fitted maximal effect; tags describe the fitted curve by direction and shape.
Structure (SMILES),Potency,growth rescue (activation)
CCOC(=O)C1=C(C)OC(N)=C(C#N)C1c1c(C)nn(-c2ccccc2)c1Cl (stereo not given),"inconclusive: 31.6 µM [activator, single point]",
O=C(NCCc1cccs1)c1ccc(Cl)cc1,inactive,
CC(C)(C)c1ccc(C(=O)N/C(=C\c2cccc([N+](=O)[O-])c2)C(=O)Nc2cccc(C(=O)O)c2)cc1,"inconclusive: 28.2 µM [activator, single point]",
COc1ccc(C(=O)c2sc(Nc3ccccc3)c(C(=O)Nc3ccc(OC)c(OC)c3)c2N)cc1,"inconclusive: 31.6 µM [activator, partial curve, poor fit]",
COc1ccccc1N1CCN(c2ccc(=O)n(CC(=O)NCc3ccc(OC(C)C)cc3)n2)CC1,"inconclusive: 25.1 µM [activator, partial curve]",
COc1ccc(Oc2c(C(F)(F)F)oc3c(CN4CCCC(C)C4)c(O)ccc3c2=O)cc1 (stereo not given),inactive,
O=C(Nc1ccc(N2CCOCC2)cc1)Nc1ccc2nc(-c3ccco3)c(-c3ccco3)nc2c1,"inconclusive: 22.4 µM [activator, partial curve, poor fit]",
O=C(Nc1cccc(C(=O)O)c1)/C(=C\c1cccc([N+](=O)[O-])c1)NC(=O)c1ccc(Br)cc1,"inconclusive: 12.6 µM [activator, partial curve, poor fit]",
Cc1cc(C(=O)Cn2nc(C(=O)O)c3ccccc3c2=O)c(C)n1CCc1ccc(F)cc1,"inconclusive: 50.1 µM [activator, single point]",
Cc1ccc(NC(=S)N2CCC(c3nc4ccccc4s3)CC2)cc1,"inconclusive: 39.8 µM [activator, single point]",
Cc1oc2ccc(O)c(CN3CCN(C)CC3)c2c1C(=O)Nc1cccc(Cl)c1C,inactive,
Cc1cccc(N2C(=O)C(CC(=O)Nc3ccc(Cl)cc3)N(Cc3ccco3)C2=O)c1 (stereo not given),"inconclusive: 35.5 µM [activator, partial curve, poor fit]",
COc1cc2c(C#N)c(N3CCc4ccccc4C3)nc(N)c2c(N)n1,"inconclusive: 28.2 µM [activator, single point]",
COC(=O)c1ccc(C2c3c(oc4ccccc4c3=O)C(=O)N2c2nc(C)c(C(=O)OC)s2)cc1 (stereo not given),inactive,
Cc1cc2cc(CCNC(=O)c3ccc(Br)o3)c(=O)[nH]c2cc1C,"inconclusive: 4.47 µM [activator, full curve, poor fit]",
CCOc1ccc(C(=O)NCCc2sc(-c3ccc(OC)c(OC)c3)nc2C)cc1,inactive,
CCOc1ccc(S(=O)(=O)Nc2cccc(C(=O)N3CCN(c4cccc(OC)c4)CC3)c2)cc1,"inconclusive: 44.7 µM [activator, partial curve, poor fit]",
Cc1ccc(S(=O)(=O)NC(=O)C2(C)CCN2C(=O)C2(c3ccc(Cl)cc3)CCC2)cc1 (stereo not given),"inconclusive: 28.2 µM [activator, single point]",
Cc1ccc(-n2c(SCC(=O)Nc3ccc(S(=O)(=O)Nc4nccs4)cc3)nnc2-c2cccs2)cc1,"inconclusive: 15.8 µM [activator, partial curve]",
COc1ccc(N(C(=O)c2snc(C(N)=O)c2N)C(C(=O)NCc2ccccc2)c2ccc(O)cc2)cc1OC (stereo not given),"inconclusive: 35.5 µM [activator, single point]",

Structure (SMILES),Potency,growth rescue (activation)
Cc1ccc(N(Cc2ccccc2)C(=O)c2cc(S(=O)(=O)N3CCOCC3)ccc2N2CCCC2)cc1,"inconclusive: 28.2 µM [activator, single point]",
O=C(CSc1nnc(-c2ccccn2)n1Cc1ccco1)c1ccc(Cl)cc1,"inconclusive: 8.91 µM [activator, partial curve]",
CCOC(=O)N1CCN(C(=O)C[C@@H]2C[C@@]3(C(=O)OCC)CCCC=C3N(Cc3ccc(Cl)cc3Cl)C2=O)CC1,"inconclusive: 15.8 µM [activator, partial curve, poor fit]",
COP(=O)(CC(=O)OC(C)(C)C)C(CC(C)C)NC(=O)OCc1ccccc1 (stereo not given),"inconclusive: 20 µM [activator, single point]",
O=C(CN1CCN(c2nc(-c3ccccc3)cs2)CC1)NCc1ccc2c(c1)OCO2,"inconclusive: 28.2 µM [activator, partial curve, poor fit]",
CCC(C)c1ccc(NC(=O)C2CCCN(c3ncccn3)C2)cc1 (stereo not given),inactive,
COC(=O)[C@]12CCCCC=C1N(CCC1=CCCCC1)C(=O)[C@H](CC(=O)NCc1ccc(OC)c(OC)c1)C2,"inconclusive: 50.1 µM [activator, single point]",
Cc1cc(C)c2nc(N3CCN(C(=O)c4cccs4)CC3)sc2c1,"inconclusive: 50.1 µM [activator, single point]",
CCc1ccc(NC(=O)c2ccc(F)c(S(=O)(=O)N3CCC4(CC3)OCCO4)c2)cc1,inactive,
COc1ccc(N2CCN(C(=O)c3ccc(Cl)c(S(=O)(=O)N4CCCC4)c3)CC2)cc1,"inconclusive: 15.8 µM [activator, partial curve]",
CCOC(=O)C1=C(CNCc2ccc(C)cc2)NC(=O)NC1c1cc(C)ccc1C (stereo not given),"inconclusive: 35.5 µM [activator, single point]",
Nc1ccc2c3c(cccc13)C(=O)N(c1ccccc1)C2=O,inactive,
Cc1ccsc1CN(C(=O)c1oc2ccc(F)cc2c1C)C1CCS(=O)(=O)C1 (stereo not given),"inconclusive: 22.4 µM [activator, single point]",
CCOc1ccccc1NC(=O)N(Cc1ccc(F)cc1)C1CCN(CC)CC1,inactive,
CCCCc1nc2cc(Cl)ccc2o1,"inconclusive: 3.98 µM [activator, partial curve, poor fit]",
CN(C)C(=O)CCc1ccc2c3c([nH]c2c1)[C@]1(CCc2ccccc2)[C@@H](C(=O)N2CCCCC2)C[C@H](CC(=O)NC(C)(C)C)C(=O)N1CC3,"inconclusive: 35.5 µM [activator, single point]",
C=CCNC(=O)COC(=O)c1ccc(Cl)c(S(=O)(=O)N(Cc2ccccc2)c2ccccc2)c1,"inconclusive: 35.5 µM [activator, single point]",
CCN(CC)CCOC(=O)c1ccc(NC(=O)c2nn(C)c3c2COc2ccccc2-3)cc1,"inconclusive: 28.2 µM [activator, partial curve, poor fit]",
COC(=O)c1cccc(NC(N)=S)c1,,inconclusive: -26.2% [activator]
C[C@H](CO)N1C[C@H](C)[C@@H](CN(C)S(=O)(=O)c2ccccc2)Oc2c(NS(=O)(=O)c3ccccc3)cccc2C1=O,"inconclusive: 31.6 µM [activator, single point]",

Structure (SMILES),Potency,growth rescue (activation)
O=c1c2c3nc4ccccc4nc3n(/N=C/c3ccco3)c2ncn1CCC1=CCCCC1,"inconclusive: 39.8 µM [activator, single point]",
C=C1CCC2C(C)(C)[C@@H](O)CC[C@@]2(C)[C@@H]1COc1ccc2ccc(=O)oc2c1 (stereo not given in full),inactive,
Nc1cc(N)nc(SCC(=O)N2CCCCC2)n1,inactive,
CCC(=O)Nc1ccccc1-c1nc2ccccc2[nH]c1=O,inactive,
O=C(CCN1C(=O)/C(=C/c2ccc(Cl)cc2)SC1=S)Nc1cccc(C(=O)O)c1,inactive,
CCC(NC(=O)c1ccc2c(c1)c(C)c(C)n2Cc1ccc(-c2ccccc2C#N)cc1)c1ccccc1 (stereo not given),"inconclusive: 35.5 µM [activator, single point]",
CC(C)Oc1ccc(Br)cc1C(=O)N/N=C/c1c[nH]c2ccccc12,"inconclusive: 3.55 µM [activator, partial curve, poor fit]",
COc1ccc2[nH]c(-c3ccccc3)cc2c1,inactive,
COC(=O)c1cnn(-c2ccc(F)cc2F)c1/C=N/NC(=S)Nc1ccccc1,inactive,
CC(C)(C)c1ccc(-c2nnc(SCC(=O)Nc3ccc4c(c3)OCCO4)n2-c2ccc(Cl)cc2)cc1,"inconclusive: 17.8 µM [activator, partial curve, poor fit]",
COC(=O)[C@@]12C[C@@H](CC(=O)NCCCCc3ccccc3)C(=O)N(Cc3ccco3)C1=CCC(C)(C)C2,"inconclusive: 17.8 µM [activator, single point]",
CCCCSc1ccc2nc(-c3ccc(C#N)cc3)cn2c1,inactive,
Cc1cc(C)nc(SCc2ccc(C(=O)NNC(=O)Nc3cccc(Cl)c3)cc2)n1,"inconclusive: 39.8 µM [activator, single point]",
CC(C)N(C(=O)Cn1cc(S(=O)(=O)CC(=O)Nc2ccccc2)c2ccccc21)C(C)C,"inconclusive: 44.7 µM [activator, single point]",
CCOc1ccc(CCN2C(=S)N([C@@H](CC(C)C)CN3CCCC3CN3C(=S)NC[C@@H]3Cc3ccc(O)cc3)C[C@@H]2Cc2ccccc2)cc1 (stereo not given in full),"inconclusive: 25.1 µM [activator, partial curve, poor fit]",
CCOC(=O)c1cc(S(=O)(=O)Nc2cc(C)c(Cl)cc2OC)[nH]n1,"inconclusive: 50.1 µM [activator, single point]",
Cc1ccc(C(=O)c2cn(Cc3ccccc3)c3cc4c(cc3c2=O)OCCO4)cc1,"inconclusive: 44.7 µM [activator, single point]",
CCCCCOc1ccc(C2C(C(C)=O)=C(C)Nc3ncnn32)cc1OC (stereo not given),inactive,
COc1ccc(CN2CCNC(=O)C2CC(=O)NC2CCCC2)c(OC)c1 (stereo not given),"inconclusive: 15.8 µM [activator, partial curve, poor fit]",
Cc1cc(C)c(C)c(S(=O)(=O)N2CCN(C(=O)c3cc(S(=O)(=O)N4CCOCC4)ccc3F)CC2)c1C,"inconclusive: 25.1 µM [activator, single point]",
